# Measurements published in the RNAGym collection of RNA variant scans (doi:10.1093/nar/gkz1192).
# Read counts are not given, so values of variants with three or more changes are uncertain.
# B1: CPEB3 Ribozyme (parent)
# chain: UAACAGGGGGCCACAGCAGAAGCGUUCACGUCGCAGCCCCUGUCAGAUUCUGGUGAAUCUGCGAAUUCUGCUGUAUAUCUC
# Variants of: B1
# Assay: self-cleavage, relative activity (ratio to wild type); higher = more cleavage; in vitro, sequencing
# Method in brief: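 For each CPEB3 ribozyme variant, relative activity is its cleaved/total read fraction divided by the unmutated ribozyme's. Barcoded error-prone PCR libraries were transcribed by T7 RNA polymerase (5 hours, 37°C) and held in DNase I for 15 min before an EDTA stop, with cleavage occurring throughout. Template-switching reverse transcription and Illumina sequencing were used to read the RNAs. A 5-read minimum applied, and results are the mean of three batches.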
row,Variant,self-cleavage
1,UAACAGGGGGCCACAGCAGACGCGUUCACGUCGCGGCCCAUGUCAGAUUCUGGUGAAUCUGCGAAUUCUGCUGUAUAUCUC,0.21
2,UAACAGGGGGCCACAGCAGUAGCGUUCACGCCGCAGCCCCUGCCAGAUUCUGGUGAAUCUGCGGAUUCUGCCGUAUAUCCC,0.06
3,UAACAGGGGGCCACAGCAGUAGCGUUCACGUCGCAGCCCCUGCCAGAUUCUGGUGAAUCUGCGAAUUCUGCCGUAUAUCUC,0.18
4,UAACAGGGGGCCACAGCAGUAGCGUUCACGUCGCAGCCCCAGUCAGAUUCUGGUGAAUCUGCGAAUUCUGCUGUAUGUCUC,0.18
5,UAACAGGGGGCCACAGCAGUAGCGUUCACGACGCAGCCCCUGUCAGAUUCUGGUGAAUCUGCGAAUUCUGCCGUAUAUCUC,0.31
6,UAACAGGGGGCCACAGCAGUAGCGUUCACGUCGCAGCCCCUGUCAGAUUCUGGAGAAUAUGCGAAUUCUGCUGUAUAUCUC,0.18
7,UAACAGGGGGCCACAGCAGUAGCGUUCACGUCGCAGCCCCUGUCAGAUUCCGGUGAAUCCGCGAAUUCUCCAGUAUAUCUC,0.17
8,UAACAGGGGGCCACAGCAGACGCGUUCACGUCCCAGCCCCUGUCAGAUUCUGGUGAAACUGCGAAUUCUGCUGCAUACCUC,0.04
9,UAACAGGGGGCCACAGCAGAGGCGUUCGCGUCGCAGCCCCUGUCAGGUUCUGGUGAAUCUGCGAAUUCUGCUGUAUACCUC,0.11
10,UAACAGGGGGCCACAGCAGUAGCGUUCACGUCGCAGCCCCUGUCAGAUUCUGGUGAACCCGUGAAUUCUGCUGUUUAUCUC,0.09
11,UAACAGGGGGCCACAGCAGUAGCGCUCACGUCGCAGCCCCCGUCAGAUUCUGGUGAAUCUGAGAAUUCUGCAGUAUAUCUC,0.06
12,UAACAGGGGGCCACAGCAGACGCGUUCACGUCGCAGCUCCUGUCAGAUUCGGGUGAAUCUGCGAAUUCUGCUGUAUAUCUC,0.07
13,UAACAGGGGGCCACAGCAGACGCGUUCACGUCGCAGCCCCCGUCAGAUACUGGUGAAUCUGCGGAUUCUGCUGUAUCUCUC,0.14
14,UAACAGGGGGCCACAGCAGACGCGUUCACGUCGCAGCCCCUGUCAGAUUCUGGUGGAUCUGCGAAUUCAGCUGUAUAUCCC,0.11
15,UAACAGGGGGCCACAGCAGUAGCGUCCGCGUCGCAGCCCCUGUCAGAUUCUGGUGAAUCUGCGAGAUGUGGUGUAUAUCUC,0.14
16,UAACAGGGGGCCACAGCAGAGGCGUUCCCGUCGCAGCCCCUGUCAGAUUCUGGUGAAUCUGCGAAUUCAGCUGUAUAUCUC,0.1
17,UAACAGGGGGCCACAGCAGUAGCGUUCACGCCGCAGCCCCUGCCAGAUUCUGGUGAAUCCGCGAAUUCUGCUGUAUAUCUC,0.15
18,UAACAGGGGGCCACAGCAGUAGCGUUCACGCUGCAGCCCCUGUCAGAUUCUGGUGAAUCUGCGAAUUCUGCUGUAUAUCUC,0.11
19,UAACAGGGGGCCACAGCAGUAGCGUUCACGUCGCAGCCCCUGUCAGAUACUGGCGAAUCUGCGAACUCUGCUGUAUAUCUC,0.13
20,UAACAGGGGGCCACAGCAGAGGCGUUCGCGUCGCAGCCCCUGUCAGAUUCUGGUGGAUCUGCGAAUUCUGCUCUAUAUCUC,0.13
21,UAACAGGGGGCCACAGCAGUAGCGUUCACGCCGCGGCCCCUGUCAGAUUCUGGUGAAUCAGUGAAUUCUGCUGUAUAUCUC,0.18
22,UAACAGGGGGCCACAGCAGUAGCGUUCACGUCGCAGCCCCUGCCAGGUUCUGGCGAAUCUGUGGAUUCUGCUGUAUAUCUC,0.11
23,UAACAGGGGGCCACAGCAGUAGCGUUCACGUCGCAGCCCCUGCCAGAUUCUGGUGAAUCUGUGGAUUCUGCUGUAUAUCUC,0.18

row,Variant,self-cleavage
1,UAACAGGGGGCCACAGCAGUAGCGUUCACGUCGCAGCCCCUGACAGAUUCUAGUGAAUCUGCGAAUUCUGCUGUAUAUCUC,0.49
2,UAACAGGGGGCCACAGCAGUAGCGCUCACGUCGCAGCCCCCGUCAGAUUCUGGUGAAUCUGCGAAUUCUGCUGUUUAUCUC,0.29
3,UAACAGGGGGCCACAGCAGUAGCGUUCACGUCGCAGCCCCCGUCAGAUUCUGGUGAAUCUGCGAAUUCUGCUGUAUACCUC,0.2
4,UAACAGGGGGCCACAGCAGACGCGUUCACGUCGCAGCCCCUGUCAGAUUCUGGUGAAUCUGCGAAUUCUGCUGGUUAUCUC,0.23
5,UAACAGGGGGCCACAGCAGUAGCGUUCACGUCGCAGCCCCUGUCAGAUUCUGGUGAAUCUGCGAAUUCUGCUGUAUACCAC,0.26
6,UAACAGGGGGCCACAGCAGUAGCGUUCACGUCGCAGCCCCAGUCAGAUACCGGUGAAUCUGCGAAUUCUGCUGUAUAUCUC,0.05
7,UAACAGGGGGCCACAGCAGUAGCGUCCACGUUGCAGCCCCUGACAGAUUCUGGUGAAUCUGCGAAUUCUGCUGUAUAUCUC,0.04
8,UAACAGGGGGCCACAGCAGACGCGUUCACGUCGCAGCCCCUGUCAGAUUCCGGUGAACCUGCGAAUUCUGCUGUAUAUCUC,0.05
9,UAACAGGGGGCCACAGCAGUAGCGUUCACGUCGCAGCCCCCGUCAGAUCCUGGUGAAUCUGCGAAUUCUGCUGUAUAUCUC,0.13
10,UAACAGGGGGCCACAGCAGACGCGUUCACGACGCAGCCCCUGUCAGAUUCUGGUGAGUCUGCGAAUUCUGAUGUAUAUCUC,0.12
11,UAACAGGGGGCCACAGCAGUAGCGUUCACGUCGCAGCCCCUGUCAGAUUCUGGUGAAACUGCGAAUUCUGCUGUAUAUCCC,0.17
12,UAACAGGGGGCCACAGCAGUAGCGCUCACGUCGCAGCCCCCGUCAGAUUCAGGUGAAUCCGCGAAUUCUGCUGUAUAUCUC,0.09
13,UAACAGGGGGCCACAGCAGUAGCGUCCACGCCGCAGCCCCUGUCAGAUUCUGGUGAAUCUGCGAAUUCUGCCGCAUAUCUC,0.11
14,UAACAGGGGGCCACAGCAGUAGCGUUCACGUCGCAGCCCCUGUCAGAUUCUGGUGAAUCAGCGGAUUCUGCUGUAUACCUC,0.1
15,UAACAGGGGGCCACAGCAGUAGCGUUCACGUCGCAGCCCCUGCCAGAUUCUGGUGGGUCUGCGAAUUCUGCUGUAUAUCUC,0.09
16,UAACAGGGGGCCACAGCAGACGCGUUCACGUCGCAGCCCCUGUCGGAUCCUGGUGAAUCUGCGAAUUCUGCUGUAUAUCUC,0.11
17,UAACAGGGGGCCACAGCAGUAGCGUUCACGUCGCAGCCCCCGUCAGGUUCCGGUGAAUCUGCGUAUUCUGCUGUAUAUCAC,0.09
18,UAACAGGGGGCCACAGCAGACGCGUACACGUCGCAGCCCCUGUCAGAUUCUGGUGAAUCUGCGAAUACUGCUGUAUAUCUC,0.09
19,UAACAGGGGGCCACAGCAGACGCGUACACGUCGCAUCCCCCGUCAGAUUCUGGUGAAUCUGCGAAUUCUGCUGUAUAUCUC,0.12
20,UAACAGGGGGCCACAGCAGUAGCGUUCACGUCGCAGCCCCAGUCAGAUUCUGGUUAACCUGCGAAUUCUGCCGUAUAUCUC,0.05
21,UAACAGGGGGCCACAGCAGUAGCGUUCACGUCGCAGCCCCUGUCAGAUUCUGGAGAAUCUGCGAAUUCUGCUGUACAUCUC,0.25
22,UAACAGGGGGCCACAGCAGUAGCGCUCACGACGCAGCCCCUGUCAGAUCCUGGUGAAUCUGCGAACUCUGCUGUAUAUCUC,0.06
23,UAACAGGGGGCCACAGCAGUAGCGUUCACGUCGCAGCCCCUGUCAGAUUCUGGUGAAUCUGCGAAAUCUGCUGUAUGUCUC,0.25

row,Variant,self-cleavage
1,UAACAGGGGGCCACAGCAGUAGCGUUCACGUCGCAGCCCCUGUCAGAUUCUGGUGAAUCUGCGAACUCAGCUGUAUAUCUC,0.17
2,UAACAGGGGGCCACAGCAGUAGCGUUCACGUCGCAGCCCCUGUCAGAUCCUGGUGAAUCAGCGAAUUCUGCAGUAUAUCUC,0.1
3,UAACAGGGGGCCACAGCAGACGCGUGCACGACGCAGACCCUGUCAGGUUCUGGUGAAUCUGCAAAUUCUGCUGUUUAUCUC,0.04
4,UAACAGGGGGCCACAGCAGACGUGUUCACGUCGCAGCCCCUGUCAGAUUCUGGUGAAUUUGCGCGUUCUGCUGUAUAUCUC,0.05
5,UAACAGGGGGCCACAGCAGUAGCGCUCACGGCGCAGCCCCUGUCAGAUUCCGGUGAAUCUGCGAAUUCUGCUGUAUAUCAC,0.12
6,UAACAGGGGGCCACAGCAGACGCGUUCACGUCGCAGCCCCUGUCUGAUUCUGGUGAGUCUGCGAAUUCUGCUGUAUAUCUC,0.14
7,UAACAGGGGGCCACAGCAGUAGCGUUCACGCCGCAACCCCUGUCAGAUUCUGGUGAGUCUGCGAAUUCUGCUGUAUAUCUC,0.11
8,UAACAGGGGGCCACAGCAGUAGCGUUCACGUCGCAGCCCCCGUCAGGUUCUGGUGAAUCUGCGAAUUCUGCUGUAUGUCUC,0.13
9,UAACAGGGGGCCACAGCAGUAGCGUUCACGCCGCAGCCCCUGUCAGAUCCUGGUGAAUCUGCGAAUUCUGCUGUAUAUCUC,0.19
10,UAACAGGGGGCCACAGCAGUAGCGUUCACGCCGCAGCCCCUGUCAGAUUCUGGUGAAUCUGCAAAUUCUGCUGUAUAUCAC,0.09
11,UAACAGGGGGCCACAGCAGUAGCGUUCACGUCGCAGCCCCUGUCAGAUUCAGGUGAAUCUGCGAAUUCCGCUGUAUAUCUC,0.13
12,UAACAGGGGGCCACAGCAGUAGCGUUCACGUCGCAGCCCCUGUCAGAUUCUGGUGAAUCUGCGAAUUCUGCUGUAUAUCCA,0.58
13,UAACAGGGGGCCACAGCAGUAGCGUACACGUCGCAGCCCCUGUCGGAUUCUGGUGAGUCUGCGAAUUCUGCUGUAUAUCUC,0.19
14,UAACAGGGGGCCACAGCAGACGCGCUCACGUCGCAGCCCCAGUCAGAUUCUGGUGAAUCUGCGAAUUCUGCUGUAUACCCC,0.25
15,UAACAGGGGGCCACAGCAGUAGCGUCCACGUCGCAGCCCCUGUCAGAUUCAGGUGAAUCUGCGAAUUCUGCUAUAUAUCUC,0.13
16,UAACAGGGGGCCACAGCAGUAGCGUUCACGUCGCAGCCCCGGUCAGAUUCUGGUGAGUCAGCGAAUUCUGCUGUAUAUCUC,0.06
17,UAACAGGGGGCCACAGCAGUAGCGUUCACGUCGCAGCCCCAGUCAGAUUCUGGUGGAUCUGCGAAUUCUGCUGUAUAUCUC,0.18
18,UAACAGGGGGCCACAGCAGAGGCGUUCCCGUGGCAGCCCCUGUCCGAUUCUGGUGAAUCUGCGAAUUCUGCUGUAUAUCUC,0.2
19,UAACAGGGGGCCACAGCAGUAGCGUUCACGUCGCAGCCCCCGUCAGAUUCUGGUGUAUCUGCGAAUUCUGCUGUAUACCUC,0.27
20,UAACAGGGGGCCACAGCAGUAGCGUCCACGUCGCAGCCCCUGUCAGAUUCUGGUGAAUCUGCGAAUUCUGCUGUAUACCUC,0.06
21,UAACAGGGGGCCACAGCAGUAGCGCUCACGUCGCAGCCCCUGUCAGAUUCUGGUGAAUCUGCGAACUCUGCUGCAUAUCUC,0.18
22,UAACAGGGGGCCACAGCAGUAGCGUUCACGUCGCAGCCCCUGGCGGAUUCUGGUGAAUCUGCGAAUCCUGCUGUAUAUCUC,0.05
